Source: PMC4336329 (PLoS ONE, 2015)
Screen size: about 310,000 compounds; about 14,000 (4.5%) showed an effect of 50% or more. Effects have a minus sign here. Some of the results follow.

Molecular target: human ether-à-go-go-related gene (hERG) potassium channel (human, UniProt Q12809)
Assay: primary screen, population patch clamp on CHO cells stably expressing hERG
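Also: peak tail current of the secondary pulse compared with the same well before compound.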

human ether-à-go-go-related gene (hERG) potassium channel, sequence (Q12809 whole entry, looked up): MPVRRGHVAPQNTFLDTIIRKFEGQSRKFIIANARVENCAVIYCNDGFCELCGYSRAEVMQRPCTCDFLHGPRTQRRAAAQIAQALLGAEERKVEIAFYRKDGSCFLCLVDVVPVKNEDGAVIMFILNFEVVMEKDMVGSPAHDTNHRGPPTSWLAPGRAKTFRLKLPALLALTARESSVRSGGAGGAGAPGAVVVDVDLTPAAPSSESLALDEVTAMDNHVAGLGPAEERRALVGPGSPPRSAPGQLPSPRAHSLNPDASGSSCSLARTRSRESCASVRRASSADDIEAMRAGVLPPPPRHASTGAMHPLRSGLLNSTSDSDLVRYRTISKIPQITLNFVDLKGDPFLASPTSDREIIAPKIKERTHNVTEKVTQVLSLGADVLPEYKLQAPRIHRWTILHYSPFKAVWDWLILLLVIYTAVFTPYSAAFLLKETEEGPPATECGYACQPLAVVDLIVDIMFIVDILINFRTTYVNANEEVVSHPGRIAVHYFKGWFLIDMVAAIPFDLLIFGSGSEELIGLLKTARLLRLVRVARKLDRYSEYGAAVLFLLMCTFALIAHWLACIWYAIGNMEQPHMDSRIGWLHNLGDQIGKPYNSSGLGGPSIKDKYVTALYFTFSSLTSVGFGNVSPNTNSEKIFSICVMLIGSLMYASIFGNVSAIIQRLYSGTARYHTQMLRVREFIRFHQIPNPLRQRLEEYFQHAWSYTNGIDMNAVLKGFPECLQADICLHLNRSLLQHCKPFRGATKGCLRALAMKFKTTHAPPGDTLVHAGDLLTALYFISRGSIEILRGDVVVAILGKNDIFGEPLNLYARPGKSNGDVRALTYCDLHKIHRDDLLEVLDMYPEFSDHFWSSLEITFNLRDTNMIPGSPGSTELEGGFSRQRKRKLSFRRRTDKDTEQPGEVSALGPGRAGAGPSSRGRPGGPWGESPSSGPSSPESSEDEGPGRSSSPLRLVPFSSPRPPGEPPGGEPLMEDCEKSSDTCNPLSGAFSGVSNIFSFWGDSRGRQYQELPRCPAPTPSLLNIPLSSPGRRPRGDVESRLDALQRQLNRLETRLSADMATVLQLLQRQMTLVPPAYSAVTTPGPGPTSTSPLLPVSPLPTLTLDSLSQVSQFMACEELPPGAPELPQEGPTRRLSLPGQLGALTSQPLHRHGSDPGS

Point of comparison: `Nc1nc(Nc2ccccc2)n[nH]1`, “hERG current change (%, negative = inhibition) at 10uM” value 8.15%. Against it:
- CCOC(=O)N1CCC(N2CC34C=CC(O3)C(C(=O)Nc3ccc(OCC)cc3)C4C2=O)CC1 (stereo not shown) — lower, -18.7%
- CCOc1cc(C(=S)N2CCN(C)CC2)ccc1OCC(=O)N1CCOCC1 — higher, 12.2%
- CN(C)c1ccc(CNCc2cccnc2)cc1 — lower, 7.68%
- CC(C)(C)OC(=O)NCCC(=O)N/N=C/c1cccc2cccnc12 — lower, -0.667%
- Cn1c(Oc2ccc3c(c2)OCO3)nc2c1c(=O)n(Cc1ccccc1)c(=O)n2C — higher, 13.6%
- COC(=O)C/C=N/N=C1/NC(=O)/C(=C/C(=O)O)S1 — higher, 16%
- COc1ccc(Cl)cc1S(=O)(=O)N1CCN=C1C — lower, -2.74%
- O=C1/C(=C/c2cccnc2)SC(=S)N1c1ccc(O)cc1 — higher, 12%
- COc1ccc(S(=O)(=O)N2CCCCC2)cc1NC(=O)Cn1c(=O)cnc2ccccc21 — lower, -10.6%
- COc1ccc(CCNC(=O)CCCN2C(=O)C(c3ccccc3)Oc3cccnc32)cc1OC (stereo not shown) — lower, -15.9%
- O=C(CSc1ncn(-c2ccccc2)n1)Nc1nc2ccccc2s1 — lower, 7.04%
- O=c1[nH][nH]c2cc(=O)n(-c3cccc(C(F)(F)F)c3)nc12 — lower, 4.36%
- COC(=O)c1ccc(NC(=O)CSc2nncn2C)cc1 — higher, 16.1%
- CN(Cc1ccccc1)C(=C(Cl)Cl)/C(=C1/NCCN1C)[N+](=O)[O-] — higher, 24.6%
- O=C(/C=N/O)NCc1ccncc1 — higher, 14.5%
- O=c1cccc2n1C[C@H]1C[C@@H]2CN2CCCC[C@@H]12 — lower, 7.74%
- COc1cc2[nH]c(=O)n(CCCC(=O)N3CC=C(c4ccccc4)CC3)c(=O)c2cc1OC — lower, -12.9%
- CN1CCN(C(c2ccc(F)cc2)c2nnnn2Cc2cccs2)CC1.Cl (stereo not shown) — lower, -21%
- CN(C)CC/C=C1\c2ccc(F)cc2Sc2cc(F)c(Cl)cc21.Cl — lower, -37.6%
- Cn1nc(CSc2ccccc2)c(C=O)c1Cl — lower, 8.12%
- CCOc1cccc(C(=O)Nc2cccc(-c3nc4ncccc4o3)c2C)c1 — lower, -22.9%
- C=C(C)COc1ccc(-c2[nH]ncc2-c2ccc(OC)c(OC)c2)c(O)c1 — lower, -0.891%
- Cc1ccc(C(C)C)c(OC(=O)/C=C/c2ccccc2)c1 — higher, 9.52%
- Cc1cc(C)cc(C(=O)NC(CC(N)=O)c2ccc(NC3CCCCCC3)c([N+](=O)[O-])c2)c1 (stereo not shown) — lower, 1.73%
- CCCn1c(CN2CCN(C(=O)OCC)CC2)nc2cc(NC(=O)CC)ccc21 — lower, 0.0715%
- Cn1c(CCN2CCCCC2)nc2cc(NC(=O)COc3ccccc3)ccc21 — lower, -78%
- COC(=O)c1cc(=O)c2c([N+](=O)[O-])ccc(OC)c2o1 — lower, -1.62%
- CCCCN(CCCC)CC1OCc2ccccc2CO1 — lower, -33.9%
- Cl.NC(N)=Nc1nc(-c2ccccc2)c2cc(Cl)ccc2n1 — lower, -67.9%
- COc1cccc(Cn2nnc(C(=O)NCc3ccc4c(c3)OCO4)c2N)c1 — lower, -11.9%
- COc1ccc(C(O)(C2CCCCC2)C(CN2CCOCC2)c2ccccc2)cc1.Cl (stereo not shown) — higher, 8.74%
- O=C(Cn1nc(-c2ccc(F)cc2)ccc1=O)Nc1ccc(C(=O)NC2CC2)cc1 — lower, -38.3%
- Cc1cc(C(=O)Nc2c(C)nn(Cc3ccc(F)cc3)c2C)on1 — lower, -5.54%
- COC(=O)c1c(NC(=O)c2cccc(N3C(=O)CCC3=O)c2)sc2c1CCN(C(C)=O)C2 — lower, 6.74%
- Cc1cccc(NC(=S)N=Nc2c(O)[nH]c3ccccc23)c1 — lower, 4.04%
- Cc1ccc(CNC(=O)CSc2nc(N3CCCCC3)nc(N3CCCCC3)n2)cc1 — lower, 7.64%
- COc1ccccc1S(=O)(=O)Cc1ccc(C(=O)N2CCCC2)o1 — higher, 8.21%
- CCCN1CNC(=S)N(c2ccccc2OC)C1 — lower, -0.472%
- CS(=O)(=O)N(CC(=O)O)c1ccc(Oc2ccccc2)cc1 — higher, 16.6%
- COc1ccc(/C=C2\OC(=S)N(C)C2=O)cc1 — higher, 15.2%
- CCCCOCCCn1c(N)c(C(=O)OCCOC)c2nc3ccccc3nc21 — lower, -32.9%
- NC(=O)C1Cc2ccccc2CN1C(=O)c1nn(Cc2ccccc2)c(=O)c2ccccc12 (stereo not shown) — lower, -29.3%
- Cc1ccc(S(=O)(=O)N(CC(=O)N2CCc3ccccc3C2)c2cccc(Cl)c2)cc1 — lower, 5.73%
- COc1ccc2c(C)c(CC(=O)N3C[C@H]4C[C@@H](C3)c3cccc(=O)n3C4)c(=O)oc2c1C — lower, -3.48%
- COc1cc2c(C(=O)N3CCN(C)CC3)c(C)oc2cc1Br — lower, -25.8%
- CCN(CC)CC(=O)N1c2ccccc2CCc2ccc(NC(=O)c3cc(OC)c(OC)c(OC)c3)cc21 — lower, 1%
- COc1ccc(C(=O)NC(=S)NNC(=O)c2ccccc2O)cc1 — higher, 19.4%
- C#CCOCCOCCOCCNc1nc(N2CCN(C(=O)CCCCCCCCCCNC(=O)[C@H]([C@@H](C)CC)n3cc(CCCCN=C(N)N)nn3)CC2)nc(N2CCN(C(=O)CCCCCCCCCCNC(=O)[C@@H]([C@H](C)O)n3cc(C)nn3)CC2)n1 — higher, 12.8%
- NS(=O)(=O)c1ccc(NC(=O)COC(=O)c2cnccn2)cc1 — higher, 16.1%
- C#CC(CC)(CC)NC(=O)c1nn(-c2ccccc2Cl)c(C)cc1=O — higher, 9.07%
- CC(C)CCNC(=O)C(c1ccco1)N(C(=O)Cn1nnc2ccccc21)c1ccc2c(c1)OCO2 (stereo not shown) — lower, -3.12%
- COc1ccc(N/C(=C(/C(Cl)=C(Cl)Cl)[N+](=O)[O-])n2nnc3ccccc32)cc1OC — higher, 10.1%
- COCCn1c(N)c(N(Cc2ccccc2)C(=O)C2CCCC2)c(=O)[nH]c1=O — higher, 15%
- O=C(CCCOc1ccccc1)n1nnc2ccccc21 — higher, 11.3%
- O=C(CN1CCN(C(=O)C2CCCO2)CC1)Nc1cc(Cl)ccc1Cl (stereo not shown) — lower, -61.9%
- COc1ccc(C(=O)NC(=S)Nc2ccc(N3CCOCC3)cc2)cc1Cl — higher, 10.6%
- COc1ccc(CN2C(=O)c3cccnc3C2=O)cc1S(=O)(=O)N(C)c1cccc(C)c1 — lower, -35.8%
- O=C(c1ccc(Cl)c(S(=O)(=O)N2CCCC2)c1)N1CCN(c2ccccc2)CC1 — lower, -8.69%
- Cn1c(=O)c(C(=O)NCCO)c(O)c2ccccc21 — lower, 4.01%
- CSc1ccccc1NC(=S)N/N=C/c1cccn1Cc1ccc(F)cc1 — lower, -6.67%
- O=C(O)C1C2C=CC(C2)C1C(=O)NCCc1ccncc1 (stereo not shown) — higher, 18.4%
- CC(=O)NC(=S)Nc1ccc(NC(=O)COc2ccc(Cl)cc2Cl)cc1 — higher, 15.7%
- O=C(Cc1ccccc1F)NC1CCCN(Cc2ccc(Cl)cc2)C1 (stereo not shown) — lower, -33.7%
- CCOC(=O)CN(C(=O)CNC(=O)c1cccs1)C(C(=O)NC1CCCCC1)c1cccs1 (stereo not shown) — lower, -1.88%
- O=C(N/N=C/c1cccc(O)c1)c1ccc2c(c1)OCCO2 — higher, 8.19%
- CCn1c(CCNC(=O)c2ccc(OC)cc2)nnc1SCc1ccc(Cl)c(Cl)c1 — lower, -61.8%
- CC(C)(C)NCC(=O)N/N=C/c1ccc(OCc2ccccc2)cc1 — lower, -60.5%
- COc1ccc(CNC(=O)CN(Cc2ccco2)C(=O)CNS(=O)(=O)c2ccccc2)cc1 — lower, -38.7%
- O=c1[nH]c(/C=C/c2ccccn2)nc2ccccc12 — higher, 11.1%
- O=C1c2ccccc2C(=O)N1CSc1nnc2c3ccccc3n(CCc3ccccc3)c2n1 — higher, 14.4%
- CC(C)C(C)NC(=O)COC(=O)c1cccc(C(=O)OCC(=O)NC(C)C(C)C)n1 (stereo not shown) — lower, -2.56%
- Cc1ccc(S(=O)(=O)NC(CC(C)C)C(=O)NCCCn2nc(C)cc2C)cc1 (stereo not shown) — lower, 0.672%
- COc1cc(C(=O)Nc2scc(-c3ccc(Br)cc3)c2C(=O)O)cc(OC)c1OC — higher, 20.8%
- O=C(CN1CCCCCC1)Nc1ccc(Br)cc1 — lower, -32.3%
- O=S(=O)(c1ccc(-c2nnc(SCc3nnc(-c4ccccc4)o3)o2)cc1)N1CCCC1 — lower, 0.461%
- O=C(NCC(c1ccco1)N1CCN(c2ccccc2F)CC1)c1cccs1 (stereo not shown) — lower, -8.98%
- CC(=O)c1ccc(O)c(CO)c1 — lower, -3.53%
- Cn1ccnc1SCC(=O)Nc1ccc(Oc2ccccc2)cc1 — lower, -4.32%
- O=C1CC2(CCN(C(=O)c3ccccc3Cl)CC2)Oc2ccccc21 — lower, -72.7%
- Cc1cc[n+](Cc2ccccc2)cc1.[O-][Cl+3]([O-])([O-])[O-] — higher, 18.9%
- O=C(Nc1ccc(Oc2cccc(C(F)(F)F)c2)nc1)c1ccco1 — higher, 13.5%
- C/C(Cc1ccccc1)=N\NC(=O)CNC(=O)c1ccc(Cl)cc1Cl — lower, -12.4%
- Cc1cc(=O)c2ccccc2n1Cc1ccccc1 — lower, -27.9%
- Cc1ccc(CSc2nc3nc(C)cc(C)n3n2)cc1 — lower, -9.77%
